{"source": "the supplement of paper PMC8728848", "binders": {"B1": {"name": "exo-alpha-sialidase (Propionibacterium acnes), Q6A7G1 (protein)", "chain": "GSHMSGRAPAPVAATTQPKLVTGDITSTDQSGTNLFFGKKIVRNARGAIMKVDRTWPAAVPAPLPDVRADSSTRMLLGPVVDLAVNEHPEGVFYRIPALATASNGDLLASYDLRPGSAGDAPNPNSIVQRRSRDNGRTWGPQTVIHAGTPGRRKVGYSDPSYLVDPATGRILNFHVKSYDRGFATSEVGTDPDDRHVLHAEVSTSTDNGHTWTHRDITREITSDPTTRTRFVASGQGIALLHGPHAGRLIAQMTVRNSVGQQAQSIYSDDHGITWHAGNPVGRMMDENKVVELSDGTLMLNSRDAARSGRRKVAYSQDGGLTWGPVKLVDDLIDPTNNAQIIRAYPNARAGSAKARILLFTNARNATERVNGTLSVSCDDGRTWVSHQTYMPGEVGYTTAAVQSDGALGVLWERDGIRYSTIPMGWLNSVCPLAPSGRPTSGKPTSGTSLPPTAT"}}, "assay_in_all_cases": "glycan array binding signal (z-score within array); higher = stronger binding", "conditions_in_all_cases": "glycan notation: IUPAC condensed, linker removed", "key": {"[1]": {"target": "Gal(b1-3)[Neu5Ac(a2-6)]GalNAc", "method_in_brief": "(§1)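 Glycan array binding is given as a within-array Z-score, which can be read as non-binding when negative. The arrays, 3228 of them, came from the Consortium for Functional Glycomics database and were retained only where the protein sequence was available. Z-scores were averaged across arrays of the same protein sequence at different concentrations or buffers and across linkers.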"}, "[2]": {"target": "Gal(b1-3)[Neu5Ac(a2-6)]GlcNAc(b1-6)Gal(b1-4)Glc", "method_in_brief": "as §1"}, "[3]": {"target": "Gal(b1-3)[Neu5Ac(b2-6)]GalNAc", "method_in_brief": "as §1"}, "[4]": {"target": "Gal(b1-4)GalNAc(a1-3)[Fuc(a1-2)]Gal(b1-4)GlcNAc", "method_in_brief": "as §1"}, "[5]": {"target": "Gal(b1-4)GalNAc(b1-3)[Fuc(a1-2)]Gal(b1-4)GlcNAc", "method_in_brief": "as §1"}, "Gal(b1-4)Glc": {"target": "Gal(b1-4)Glc", "method_in_brief": "as §1"}, "Gal(b1-4)Glc6S": {"target": "Gal(b1-4)Glc6S", "method_in_brief": "as §1"}, "Gal(b1-4)GlcNAc": {"target": "Gal(b1-4)GlcNAc", "method_in_brief": "as §1"}, "[6]": {"target": "Gal(b1-4)GlcNAc(a1-6)Gal(b1-4)GlcNAc", "method_in_brief": "as §1"}, "[7]": {"target": "Gal(b1-4)GlcNAc(b1-2)Man(a1-3)Man(b1-4)GlcNAc(b1-4)GlcNAc", "method_in_brief": "as §1"}, "[8]": {"target": "Gal(b1-4)GlcNAc(b1-2)Man(a1-3)[Gal(b1-4)GlcNAc(b1-2)Man(a1-6)]Man(b1-4)GlcNAc(b1-4)GlcNAc", "method_in_brief": "as §1"}, "[9]": {"target": "Gal(b1-4)GlcNAc(b1-2)Man(a1-3)[Gal(b1-4)GlcNAc(b1-2)Man(a1-6)]Man(b1-4)GlcNAc(b1-4)[Fuc(a1-6)]GlcNAc", "method_in_brief": "as §1"}, "[10]": {"target": "Gal(b1-4)GlcNAc(b1-2)Man(a1-3)[GlcNAc(b1-2)Man(a1-6)]Man(b1-4)GlcNAc(b1-4)GlcNAc", "method_in_brief": "as §1"}, "[11]": {"target": "Gal(b1-4)GlcNAc(b1-2)Man(a1-3)[Man(a1-6)]Man(b1-4)GlcNAc(b1-4)GlcNAc", "method_in_brief": "as §1"}, "[12]": {"target": "Gal(b1-4)GlcNAc(b1-2)Man(a1-6)Man(b1-4)GlcNAc(b1-4)GlcNAc", "method_in_brief": "as §1"}, "[13]": {"target": "Gal(b1-4)GlcNAc(b1-2)Man(a1-6)[GlcNAc(b1-2)Man(a1-3)]Man(b1-4)GlcNAc(b1-4)GlcNAc", "method_in_brief": "as §1"}, "[14]": {"target": "Gal(b1-4)GlcNAc(b1-2)Man(a1-6)[Man(a1-3)]Man(b1-4)GlcNAc(b1-4)GlcNAc", "method_in_brief": "as §1"}, "[15]": {"target": "Gal(b1-4)GlcNAc(b1-2)[Gal(b1-4)GlcNAc(b1-4)]Man(a1-3)[Gal(b1-4)GlcNAc(b1-2)Man(a1-6)]Man(b1-4)GlcNAc(b1-4)GlcNAc", "method_in_brief": "as §1"}, "[16]": {"target": "Gal(b1-4)GlcNAc(b1-2)[Gal(b1-4)GlcNAc(b1-4)]Man(a1-3)[Gal(b1-4)GlcNAc(b1-2)[Gal(b1-4)GlcNAc(b1-6)]Man(a1-6)]Man(b1-4)GlcNAc(b1-4)GlcNAc", "method_in_brief": "as §1"}, "[17]": {"target": "Gal(b1-4)GlcNAc(b1-3)Gal(b1-3)GlcNAc", "method_in_brief": "as §1"}, "[18]": {"target": "Gal(b1-4)GlcNAc(b1-3)Gal(b1-4)Glc", "method_in_brief": "as §1"}, "[19]": {"target": "Gal(b1-4)GlcNAc(b1-3)Gal(b1-4)GlcNAc", "method_in_brief": "as §1"}, "[20]": {"target": "Gal(b1-4)GlcNAc(b1-3)Gal(b1-4)GlcNAc(b1-3)Gal(b1-4)GlcNAc", "method_in_brief": "as §1"}, "[21]": {"target": "Gal(b1-4)GlcNAc(b1-3)Gal(b1-4)[Fuc(a1-3)]GlcNAc(b1-3)Gal(b1-4)[Fuc(a1-3)]GlcNAc", "method_in_brief": "as §1"}, "[22]": {"target": "Gal(b1-4)GlcNAc(b1-3)GalNAc", "method_in_brief": "as §1"}, "[23]": {"target": "Gal(b1-4)GlcNAc(b1-3)[Gal(b1-4)GlcNAc(b1-6)]Gal(b1-4)GlcNAc", "method_in_brief": "as §1"}, "[24]": {"target": "Gal(b1-4)GlcNAc(b1-3)[Gal(b1-4)GlcNAc(b1-6)]GalNAc", "method_in_brief": "as §1"}, "[25]": {"target": "Gal(b1-4)GlcNAc(b1-3)[GlcNAc(b1-6)]Gal(b1-4)GlcNAc", "method_in_brief": "as §1"}, "[26]": {"target": "Gal(b1-4)GlcNAc(b1-6)Gal(b1-4)GlcNAc", "method_in_brief": "as §1"}, "[27]": {"target": "Gal(b1-4)GlcNAc(b1-6)GalNAc", "method_in_brief": "as §1"}, "[28]": {"target": "Gal(b1-4)GlcNAc(b1-6)[Gal(b1-3)]GalNAc", "method_in_brief": "as §1"}, "Gal3S(b1-3)GalNAc": {"target": "Gal3S(b1-3)GalNAc", "method_in_brief": "as §1"}, "Gal3S(b1-3)GlcNAc": {"target": "Gal3S(b1-3)GlcNAc", "method_in_brief": "as §1"}, "[29]": {"target": "Gal3S(b1-3)[Fuc(a1-4)]GlcNAc", "method_in_brief": "as §1"}, "Gal3S(b1-4)Glc": {"target": "Gal3S(b1-4)Glc", "method_in_brief": "as §1"}, "Gal3S(b1-4)Glc6S": {"target": "Gal3S(b1-4)Glc6S", "method_in_brief": "as §1"}, "Gal3S(b1-4)GlcNAc": {"target": "Gal3S(b1-4)GlcNAc", "method_in_brief": "as §1"}, "Gal3S(b1-4)GlcNAc6S": {"target": "Gal3S(b1-4)GlcNAc6S", "method_in_brief": "as §1"}}, "note": "Some of the results follow.", "data": [{"binder": "B1", "values": [{"measurement": "glycan array binding signal (z-score)", "setting": "[1]", "value": -0.182}, {"measurement": "glycan array binding signal (z-score)", "setting": "[2]", "value": 0.97}, {"measurement": "glycan array binding signal (z-score)", "setting": "[3]", "value": -0.348}, {"measurement": "glycan array binding signal (z-score)", "setting": "[4]", "value": -0.35}, {"measurement": "glycan array binding signal (z-score)", "setting": "[5]", "value": -0.351}, {"measurement": "glycan array binding signal (z-score)", "setting": "Gal(b1-4)Glc", "value": -0.331}, {"measurement": "glycan array binding signal (z-score)", "setting": "Gal(b1-4)Glc6S", "value": -0.311}, {"measurement": "glycan array binding signal (z-score)", "setting": "Gal(b1-4)GlcNAc", "value": -0.353}, {"measurement": "glycan array binding signal (z-score)", "setting": "[6]", "value": -0.353}, {"measurement": "glycan array binding signal (z-score)", "setting": "[7]", "value": -0.361}, {"measurement": "glycan array binding signal (z-score)", "setting": "[8]", "value": -0.339}, {"measurement": "glycan array binding signal (z-score)", "setting": "[9]", "value": -0.354}, {"measurement": "glycan array binding signal (z-score)", "setting": "[10]", "value": -0.366}, {"measurement": "glycan array binding signal (z-score)", "setting": "[11]", "value": -0.316}, {"measurement": "glycan array binding signal (z-score)", "setting": "[12]", "value": -0.368}, {"measurement": "glycan array binding signal (z-score)", "setting": "[13]", "value": -0.373}, {"measurement": "glycan array binding signal (z-score)", "setting": "[14]", "value": -0.349}, {"measurement": "glycan array binding signal (z-score)", "setting": "[15]", "value": -0.333}, {"measurement": "glycan array binding signal (z-score)", "setting": "[16]", "value": -0.37}, {"measurement": "glycan array binding signal (z-score)", "setting": "[17]", "value": -0.363}, {"measurement": "glycan array binding signal (z-score)", "setting": "[18]", "value": -0.357}, {"measurement": "glycan array binding signal (z-score)", "setting": "[19]", "value": -0.294}, {"measurement": "glycan array binding signal (z-score)", "setting": "[20]", "value": -0.366}, {"measurement": "glycan array binding signal (z-score)", "setting": "[21]", "value": -0.362}, {"measurement": "glycan array binding signal (z-score)", "setting": "[22]", "value": -0.335}, {"measurement": "glycan array binding signal (z-score)", "setting": "[23]", "value": -0.359}, {"measurement": "glycan array binding signal (z-score)", "setting": "[24]", "value": -0.354}, {"measurement": "glycan array binding signal (z-score)", "setting": "[25]", "value": -0.371}, {"measurement": "glycan array binding signal (z-score)", "setting": "[26]", "value": -0.315}, {"measurement": "glycan array binding signal (z-score)", "setting": "[27]", "value": -0.33}, {"measurement": "glycan array binding signal (z-score)", "setting": "[28]", "value": -0.364}, {"measurement": "glycan array binding signal (z-score)", "setting": "Gal3S(b1-3)GalNAc", "value": -0.343}, {"measurement": "glycan array binding signal (z-score)", "setting": "Gal3S(b1-3)GlcNAc", "value": -0.284}, {"measurement": "glycan array binding signal (z-score)", "setting": "[29]", "value": -0.332}, {"measurement": "glycan array binding signal (z-score)", "setting": "Gal3S(b1-4)Glc", "value": -0.336}, {"measurement": "glycan array binding signal (z-score)", "setting": "Gal3S(b1-4)Glc6S", "value": -0.309}, {"measurement": "glycan array binding signal (z-score)", "setting": "Gal3S(b1-4)GlcNAc", "value": -0.268}, {"measurement": "glycan array binding signal (z-score)", "setting": "Gal3S(b1-4)GlcNAc6S", "value": -0.276}]}]}
